These results are taken from PubChem BioAssay AID1240 (Sanford-Burnham Center for Chemical Genomics, 2008).

Among all 50,000 compounds or so, about 800 (1.6%) showed an effect of 50% or more. The list shows a part of the results.

The experiment deals with Bcl-2-like protein 10 (Homo sapiens) (UniProt Q9HD36). Nature of the experiment: TR3 peptide-Bcl-B binding displacers, biochemical primary FP assay, phenotype converters (AID 1240).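 Also: 0% = Bcl-B with tracer peptide and DMSO and 100% = tracer peptide lacking Bcl-B.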 To be noted: GST-Bcl-B / FITC-TR3 peptide fluorescence polarization; stronger effect = higher value; compound at 3.75 mg/L.
UniProt Q9HD36, sequence (Q9HD36 whole entry, looked up): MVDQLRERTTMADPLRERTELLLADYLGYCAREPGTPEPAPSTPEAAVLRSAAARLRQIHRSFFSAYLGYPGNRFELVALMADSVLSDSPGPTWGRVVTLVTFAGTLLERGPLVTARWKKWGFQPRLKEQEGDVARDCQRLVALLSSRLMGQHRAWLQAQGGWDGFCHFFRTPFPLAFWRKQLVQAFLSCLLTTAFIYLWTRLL
`O=C(COc1ccc(Br)cc1)N/N=C/c1ccco1`: the displacement is -1.2%.

`O=C(/C=C/c1ccc2c(c1)OCO2)c1ccc(Br)cc1`: the displacement was 10.7%.

With `COc1ccccc1CNC(=O)COc1ccc(C)cc1Br`, the displacement was -6.1%.

Regarding `Cc1ccc(CN2CCN(N=Cc3cc(Br)ccc3O)CC2)c(C)c1`, the displacement is -5.8%.

`COCCCNC(=O)CN(c1ccc(C)c(Cl)c1)S(C)(=O)=O`: the displacement is -2.2%.

For `O=C(Nc1ccc(NC(=O)c2ccccc2[N+](=O)[O-])cc1)c1ccccc1`, the displacement is -7.4%.

In the case of `COC(=O)c1ccc(COc2cc3oc(=O)c4c(c3cc2Cl)CCC4)cc1`, the displacement stood at 7.8%.

On to `CCOCCOC(=O)c1ccc(NC(=O)c2ccccc2C)cc1`, for which the displacement is -9.3%.

Regarding `CCOC(=O)c1ccc2c(c1)C1C=CCC1C(c1cccc([N+](=O)[O-])c1)N2` (stereo unspecified), the displacement was -1%.

For `COc1ccc(C(=O)Nc2ccc(O)c(-c3nc4ccccc4s3)c2)cc1[N+](=O)[O-]`, the displacement is -6.2%.

`CNC(=O)C(=O)Nc1cccc(Cl)c1`: the displacement stood at 19.4%.

`O=c1/c(=C\c2ccc(F)cc2)sc2nc(-c3ccc(Cl)cc3Cl)nn12`: the displacement was 18.3%.

Take `Cc1ccc(S(=O)(=O)NCc2cccnc2)c(C)c1`: the displacement was determined as 5.4%.

With `O=[N+]([O-])c1cc2c(cc1C=Nc1ccc(OC(F)(F)F)cc1)OCO2`, the displacement stood at 19.3%.

Turning to `COC(=O)c1c(NC(=O)c2cccc(OC)c2)sc(C)c1C`, the displacement was -0.8%.

With `Cc1ccc(C(=O)O/N=C(\N)Cc2ccc(Cl)cc2Cl)cc1[N+](=O)[O-]`, the displacement was 3.8%.

Turning to `O=C(/C=C/c1cccc(C(F)(F)F)c1)Nc1ccccc1[N+](=O)[O-]`, the displacement was determined as 7%.

`COc1ccc(C2CC(C(F)(F)F)n3nc(C(=O)Nc4cc(C)ccc4O)cc3N2)cc1` (stereo unspecified): the displacement is -1.9%.

Regarding `S=C(NCCN1CCOCC1)Nc1ccc(Cl)cc1Cl`, the displacement was -2.7%.

Consider `COc1cc([N+](=O)[O-])ccc1-c1ccc(/C=C(/C#N)C(=O)Nc2cccc(Br)c2)o1`, for which the displacement was determined as 92.4%.

`COc1ccc(/C=C(/NC(=O)c2ccccc2)c2nc3ccc(C(F)(F)F)cc3[nH]2)cc1OC`: the displacement was -23.8%.

Turning to `COc1ccc(-c2csc(N)c2C(=O)OC(C)C)cc1OC`, the displacement is -0.7%.

With `Cc1cccc(NC(=O)C(=O)NCc2ccccc2Cl)c1C`, the displacement was determined as 15.9%.

Turning to `CC(C)(C)c1ccc(OCC(=O)Nc2cccc(C(=O)Nc3nccs3)c2)cc1`, the displacement amounted to 6.7%.

Regarding `O=C1OC(c2ccc(Cl)cc2)=C/C1=C\c1cccc([N+](=O)[O-])c1`, the displacement stood at 3.5%.

For `Cc1cccc(C=Nc2ccc(-c3nc4ccc(C)cc4s3)cc2)c1`, the displacement was -2.2%.

Consider `Cc1cccc(OCC(=O)N/N=C/c2cccn2-c2ccc([N+](=O)[O-])cc2)c1`, for which the displacement came out at 8.3%.

In the case of `COc1cc(/C=C2\C=C(c3ccc(Cl)cc3)OC2=O)c([N+](=O)[O-])cc1OC`, the displacement was -11.8%.

For `Cc1oc2ccc(O)cc2c1-c1ccccc1`, the displacement is 9.1%.

In the case of `CC(NC(=O)c1ccc([N+](=O)[O-])cc1)C1C2CC3CC(C2)CC1C3` (stereo unspecified), the displacement was -2%.

Consider `CCOC(=O)c1c(-c2ccccc2)oc2ccc(OC(=O)c3ccc(OC)c(OC)c3)cc12`, for which the displacement was 8.8%.

For `Cc1ccccc1NC(=O)C(=O)NCc1ccco1`, the displacement worked out at 11.3%.

Consider `CCCCOC(=O)c1ccc(NC(=O)c2ccc(I)cc2)cc1`, for which the displacement was determined as 1.6%.

As to `CCOc1ccc2nc(SCC(=O)Nc3ccc(CC)cc3)sc2c1`, the displacement was -14.2%.

Take `CC(=O)NC1=NC(=O)/C(=C\c2ccccc2Cl)S1`: the displacement was 14%.

`O=C1C(=O)c2ccccc2C(O)=C1CC(=O)c1ccccc1`: the displacement was found to be 9%.

For `CCc1ccc(NC(=O)C(=O)NCCN2CCN(C(=O)c3ccc(OC)cc3)CC2)cc1`, the displacement stood at 3.6%.

Consider `COc1cccc(NC(=O)c2cc([N+](=O)[O-])ccc2Cl)c1`, for which the displacement came out at 0.5%.

As for `COc1ccc(CCN(C(=O)c2ccc(F)cc2)C2=CC3CCC(C2)N3C)cc1OC` (stereo unspecified), the displacement was -9.3%.

On to `CC(Cc1ccccc1)NC(=O)C1COc2ccccc2O1` (stereo unspecified), for which the displacement came to 8.2%.

In the case of `Cc1ccc(C(=O)NCC(=O)c2ccc(-c3ccccc3)cc2)cc1`, the displacement was -0.2%.

As for `O=c1/c(=C\c2cccc(Oc3ccc(C(F)(F)F)cc3[N+](=O)[O-])c2)sc2nc3ccccc3n12`, the displacement came out at 0.2%.

With `O=C1C=C(NCCc2ccccc2)C2(CCCCC2)O1`, the displacement stood at 0.4%.

For the compound `CCN(C(=O)c1ccc(NC(C)=O)cc1)c1ccccc1C`, the displacement was -1.9%.

As to `O=S1(=O)C[C@H](OS(=O)(=O)c2ccc(Cl)cc2)[C@@H](OS(=O)(=O)c2ccc(Cl)cc2)C1`, the displacement is 10.8%.

Turning to `C/C(=N/NC(=O)c1c[nH]c2ccccc12)c1cccc(NC(=O)c2ccco2)c1`, the displacement was -3.3%.

Turning to `CN(C)c1cccc(NC(=O)Cc2cccc3ccccc23)c1`, the displacement is 8.2%.

For the compound `O=C(NCCOc1ccc(F)cc1)c1cccc2ccccc12`, the displacement was found to be 11%.

`O=C(/C=C/c1cccc([N+](=O)[O-])c1)N1CCN(c2cccc(Cl)c2)CC1`: the displacement was -0.6%.

For the compound `CCOC(=O)c1c2c(n(Cc3ccccc3)c1C)C(=O)C(=O)c1ccc(Br)cc1-2`, the displacement was -9.2%.

As to `CC(C)CNC(=O)CN(c1cccc(C(F)(F)F)c1)S(C)(=O)=O`, the displacement is -10.2%.

On to `O=C1NC(=S)S/C1=C\c1ccccc1OCc1ccc(Cl)cc1`, for which the displacement was 11.4%.

Take `CC(=O)C1C(=O)c2ccccc2C1=Nc1ccc2cccnc2c1` (stereo unspecified): the displacement was found to be 4.2%.

`O=C(NCCCn1ccnc1)c1cc2c(ccc3ccccc32)oc1=O`: the displacement amounted to 8.2%.

Take `O=C(NC1CCS(=O)(=O)C1)/C(=C\c1ccc(Br)cc1)NC(=O)c1ccccc1` (stereo unspecified): the displacement stood at 1.9%.

As for `CC1=CC(C)(C)N(C(=O)COc2nc3ccccc3s2)c2ccccc21`, the displacement is -3.5%.

On to `O=C(Nc1ccccc1)c1ccc(-n2cnnn2)cc1`, for which the displacement is -6.9%.

`CCc1c(C)nc2c(OC)cccc2c1Cl`: the displacement was 11.4%.

Turning to `COc1cc(NC(=O)COc2ccc(C)cc2)ccc1NC(=O)c1ccco1`, the displacement came out at 12.4%.

As to `CCc1ccc(N2C(=O)NC(=O)/C(=C\c3cc(Cl)c(OCC(=O)O)c(Cl)c3)C2=O)cc1`, the displacement worked out at 13.1%.

As for `O=C1/C(=C/c2ccccc2C(F)(F)F)SC(=S)N1c1ccccc1`, the displacement was -6.5%.

Take `COc1ccccc1N1C(=O)NC(=O)/C(=C\c2ccc(O)c(O)c2)C1=O`: the displacement is 7.3%.

Take `CC12CCC(C(=O)N(c3nccs3)C1=O)C2(C)C` (stereo unspecified): the displacement stood at 8.8%.

In the case of `CC(NC(=O)COc1ccc(C=C2C(=O)NC(=O)NC2=O)cc1)c1ccccc1` (stereo unspecified), the displacement was found to be 7.3%.

`Cc1[nH]n(-c2ccccc2)c(=O)c1/C=N/n1c(C)nc2ccccc2c1=O`: the displacement was -20.1%.

On to `COC(=O)c1ccc(NC(=O)c2ccc(I)cc2)cc1`, for which the displacement is -18%.

In the case of `COc1ccc(OC)c(N=C(C)C2=C(O)CSC2=O)c1`, the displacement worked out at 10.1%.

In the case of `O=[N+]([O-])c1cc2c(cc1/C=N/Nc1nc3nonc3nc1Nc1ccc(F)cc1)OCO2`, the displacement was -4.7%.

`CC(=O)Nc1ccc(S(=O)(=O)N2CCC(Cc3ccccc3)CC2)cc1`: the displacement was -3.3%.

As to `O=C(Nc1ccc(NC(=O)c2cc([N+](=O)[O-])ccc2Cl)cc1)c1ccc(Br)cc1`, the displacement is 14.8%.

As for `O=C(O)c1cccc(NCCC(=O)c2ccccc2)c1`, the displacement amounted to 3.1%.

Take `COc1ccc(N2C(=O)CC(N3CCN(C(c4ccccc4)c4ccc(Cl)cc4)CC3)C2=O)cc1` (stereo unspecified): the displacement was -10.6%.

Consider `Cn1c(=O)c2c(nc(NCCOCCO)n2C)n(C)c1=O`, for which the displacement was -2.7%.

For the compound `COCCOC(=O)c1c(C)oc2ccc(OC(=O)c3cc4ccccc4o3)cc12`, the displacement is 10.8%.

As to `CCN(CC)c1ccc(N2C(=O)/C(=C/c3cccc([N+](=O)[O-])c3)SC2=S)cc1`, the displacement is -6.6%.

As to `COc1cccc(/C=N/NC(=O)c2ccc(=O)n(C)c2)c1OC`, the displacement was -1.8%.

In the case of `CCOc1ccc(N2C(=O)/C(=C/c3ccc(-c4ccc([N+](=O)[O-])cc4OC)o3)C(=O)NC2=S)cc1`, the displacement is -6.5%.

For `O=C(Nc1ccc(Cl)c(Cl)c1)c1cc([N+](=O)[O-])ccc1N1CCCCC1`, the displacement was determined as 14%.

Regarding `CCOc1ccccc1NC(=O)CN(c1ccc(C)cc1)S(=O)(=O)c1ccc(OC)c(OC)c1`, the displacement amounted to 17.6%.

Consider `CCCC1=NN2C(=N)/C(=C/c3ccc(-c4ccc([N+](=O)[O-])cc4Br)o3)C(=O)N=C2S1`, for which the displacement was determined as 129%.

Turning to `O=C1/C(=C/c2ccc(I)o2)SC(=S)N1c1ccc([N+](=O)[O-])cc1`, the displacement worked out at 9.5%.

For the compound `CCCCc1c(C)nc2ccc(C(=O)O)cc2c1Cl`, the displacement is 1%.

Regarding `COc1cc(C2C(C#N)=C(N)SC(N)=C2C#N)ccc1O`, the displacement is -71.7%.

Turning to `COc1nc(N/N=C/c2ccccc2F)nc(N2CCCCC2)n1`, the displacement is -3.1%.

For `O=C(NC(=S)Nc1cc(C(F)(F)F)ccc1Cl)c1ccc(Cl)cc1`, the displacement is -5.3%.

For `N#CCCN(CCc1ccccc1)S(=O)(=O)c1cccc2nsnc12`, the displacement came out at 3.3%.

Consider `CP(C)(=O)CCP(=O)(c1ccccc1)c1ccccc1`, for which the displacement was found to be 4.4%.

For `CS(=O)(=O)c1ccc2nc(NC(=O)CCc3ccccc3)sc2c1`, the displacement amounted to 6.9%.

For `Cc1cc(Br)c(Nc2nc(NN)nc(N3CCOCC3)n2)cc1Cl`, the displacement was determined as 3.3%.

With `COc1ccc(S(=O)(=O)N(CCc2ccccc2)CC(=O)Nc2cc(OC)ccc2OC)cc1`, the displacement is 15.4%.

Take `Nc1ncc(Cc2ccc(Cl)c(Cl)c2)s1`: the displacement was determined as 16.7%.

Consider `COc1ccc(C(=O)Nc2sc(C(=O)OC(C)C)c(C)c2C(=O)OC(C)C)cc1OC`, for which the displacement amounted to 7.2%.

In the case of `C=CCOc1c(Br)cc(C2C3=C(CC(C)(C)CC3=O)OC3=C2C(=O)CC(C)(C)C3)cc1OCC`, the displacement amounted to 0.2%.

Consider `O=C(Nc1ccc(S(=O)(=O)N2CCCC2)cc1)c1ccc(-c2ccccc2)cc1`, for which the displacement amounted to 5.3%.

As to `CN(C)CCOC(=O)C12CC3CC(C1)CC(C(=O)OCCN(C)C)(C3)C2`, the displacement turned out to be 15.7%.

In the case of `C=CCN1C(=O)C(Cc2ccc(Br)cc2)S/C1=N\N=C\c1cccs1` (stereo unspecified), the displacement amounted to 12.9%.

On to `O=C(Nc1ccccc1)c1ccc(Cl)c(Cl)c1`, for which the displacement is -3.3%.

For the compound `Clc1ccc2oc(-c3ccccc3Cl)nc2c1`, the displacement was -5.8%.

Regarding `O=C(c1ccc([N+](=O)[O-])cc1)N1CCN(Cc2cccc(Oc3ccccc3)c2)CC1`, the displacement was -2.9%.

In the case of `Cc1oc(C(C)(C)C)cc1C(=O)Nc1ccc(N(C)C)cc1`, the displacement came out at 1.6%.

Turning to `O=C(c1c(Cl)cccc1Cl)N(Cc1ccccc1)c1ccccn1`, the displacement was determined as 17.7%.

For the compound `O=C(O)c1ccc(NCc2cccs2)cc1`, the displacement came out at 13.9%.

Take `O=C(Nc1sc2c(c1C(=O)O)CCCCC2)c1ccccc1Cl`: the displacement was 20%.

In the case of `Cc1ccccc1C(=O)N=Nc1c(O)n(CN(C)C)c2ccccc12`, the displacement was -7.4%.

Take `CC1=CC(C)C2COC(c3cccnc3)C1C2C` (stereo unspecified): the displacement was 3.2%.

For `CN1C2C=C(N(CCc3c[nH]c4ccccc34)C(=O)c3cc(Cl)cc(Cl)c3)CC1CC2` (stereo unspecified), the displacement was -4%.
